Some of the results follow. At the low end of the ranking, values are background and their order means little.
target: T1, GST-Rok-C97-191 (UniProt O34857); experiment: protein binding microarray; settings: Rok is a gene silencer of Bacillus subtilis; high values mean tight binding; most listed sequences are background and not binding sites; double strand, one strand shown;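 further: rank score from −0.5 (least bound) to 0.5 (best bound)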
T1 sequence: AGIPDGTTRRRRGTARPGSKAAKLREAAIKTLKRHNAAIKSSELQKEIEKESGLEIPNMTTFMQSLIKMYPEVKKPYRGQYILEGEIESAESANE

Row | Sequence | binding signal
1 | AGGAAATA | 0.13 E-score
2 | GCTCGAAA | -0.112 E-score
3 | GTAGACAC | -0.14 E-score
4 | ATCCTACC | 0.239 E-score
5 | ATTCCGGC | 0.0407 E-score
6 | AGCCCACT | -0.142 E-score
7 | GACAGTAC | 0.0206 E-score
8 | AAGGGAGA | -0.31 E-score
9 | ACTGCGTG | -0.0696 E-score
10 | GGCGACTA | -0.103 E-score
11 | CCATCGGA | -0.129 E-score
12 | CGTCTGAC | -0.183 E-score
13 | AGTTTAAG | 0.0599 E-score
14 | CATTGAGC | -0.106 E-score
15 | AGATCTGG | -0.0775 E-score
16 | AATCGAGC | 0.0653 E-score
17 | GCCGCAGA | -0.176 E-score
18 | ACCGGCCG | -0.0923 E-score
19 | AGGGAACG | 0.00378 E-score
20 | ATCGACAG | -0.0645 E-score
21 | GCTCCCAC | -0.202 E-score
22 | CAAGAGCA | -0.103 E-score
23 | AAGAAATT | 0.138 E-score
24 | AAAGAGCC | -0.305 E-score
25 | AATCCGGT | 0.0902 E-score

Row | Sequence | binding signal
26 | CATTTGCA | 0.157 E-score
27 | GTAAGAAC | -0.0908 E-score
28 | CCCCCGGC | -0.239 E-score
29 | GTCTCCGA | -0.117 E-score
30 | ATCCCCAT | -0.0823 E-score
31 | CCCGCAGG | -0.297 E-score
32 | CGACCCGA | -0.199 E-score
33 | AGTTGCAG | -0.0262 E-score
34 | CCGCATAA | -0.0629 E-score
35 | AGCGAGGC | -0.25 E-score
36 | AGATTTAA | 0.119 E-score
37 | AGGTCCAT | 0.0797 E-score
38 | CGCTGATC | -0.0449 E-score
39 | CTAGTGAA | 0.171 E-score
40 | CCGCATCG | -0.195 E-score
41 | ACTAGGCT | -0.0671 E-score
42 | CCCCGCAC | -0.35 E-score
43 | ATATTATA | 0.379 E-score
44 | ACGAGACA | 0.131 E-score
45 | GCTGGCGA | -0.195 E-score
46 | ATATAGCG | 0.349 E-score
47 | CCACTATA | 0.219 E-score
48 | CGGGGGTA | -0.207 E-score
49 | TGAGAGCA | -0.0498 E-score
50 | CACTGGAA | -0.137 E-score

Row | Sequence | binding signal
51 | ACTACTGG | 0.307 E-score
52 | GAGGAGCC | -0.367 E-score
53 | ACGCCGCC | -0.236 E-score
54 | CCTAATCC | 0.0562 E-score
55 | GACAAGTC | -0.138 E-score
56 | AGCATCGC | -0.207 E-score
57 | AGGAGTTA | 0.0534 E-score
58 | GAAACGAA | -0.0931 E-score
59 | CAGGTAGC | 0.0356 E-score
60 | ACGTCAGA | -0.183 E-score
61 | GTCGACTA | 0.183 E-score
62 | AAACGGGG | 0.0334 E-score
63 | AAACGCAT | -0.135 E-score
64 | GCGTAGAC | -0.111 E-score
65 | AAACTGTT | -0.043 E-score
66 | CTGATTCC | -0.0703 E-score
67 | ACCGGTCA | -0.0246 E-score
68 | ACTTTGAC | -0.00718 E-score
69 | GAATCGCC | 0.00133 E-score
70 | AACGTTAC | 0.172 E-score
71 | CAGGAATA | -0.142 E-score
72 | CTCCTAAA | -0.155 E-score
73 | ACCTTTCC | -0.0629 E-score
74 | GATGCTGA | -0.0939 E-score
75 | CCACATCC | -0.109 E-score

Row | Sequence | binding signal
76 | CCGATTCA | -0.0672 E-score
77 | AAAAATGG | 0.056 E-score
78 | GAAACTCA | 0.0227 E-score
79 | TCATATGA | 0.14 E-score
80 | CGATTACG | -0.191 E-score
81 | CGGAGCGC | -0.13 E-score
82 | AGGGCCGG | -0.227 E-score
83 | ACAATACA | 0.265 E-score
84 | GTCTTAAA | -0.129 E-score
85 | GATCTAAA | -0.144 E-score
86 | CCCTCTTC | -0.271 E-score
87 | ATTTCTCG | 0.1 E-score
88 | CTCGTATC | -0.195 E-score
89 | AAAGTCTC | 0.0451 E-score
90 | GGAGGACC | -0.318 E-score
91 | CAACGGTC | -0.177 E-score
92 | ATTGGCTG | -0.0203 E-score
93 | ACTCAAAG | -0.155 E-score
94 | AGCCTCAT | -0.232 E-score
95 | CAAACGTA | 0.139 E-score
96 | GATGTCAA | -0.019 E-score
97 | CACAACGG | -0.135 E-score
98 | GAAGTTAA | 0.271 E-score
99 | GCCTATCC | -0.2 E-score
100 | ATAGTCCC | -0.0996 E-score

Row | Sequence | binding signal
101 | ACTCTATA | 0.116 E-score
102 | ACTCAATG | 0.0506 E-score
103 | GTCAAGTA | 0.157 E-score
104 | CAATCAAA | 0.122 E-score
105 | GCAATCGC | -0.0952 E-score
106 | GAGTTGCA | 0.0131 E-score
107 | CGCGACCA | -0.101 E-score
108 | ATAACCGC | 0.0139 E-score
109 | AACTCTAA | 0.104 E-score
110 | CGTTACAC | 0.00626 E-score
111 | AGAGCATC | -0.149 E-score
112 | ACAACGCC | -0.0741 E-score
113 | AAAGGCGG | -0.354 E-score
114 | CCCCTCAC | -0.217 E-score
115 | ATTTCTTC | 0.204 E-score
116 | GAGAAACC | 0.0183 E-score
117 | GCCTCCAC | -0.204 E-score
118 | AGCTGTCC | -0.127 E-score
119 | ACGGAGAA | 0.0456 E-score
120 | CATGGAGC | -0.184 E-score
121 | CAGACAGG | -0.364 E-score
122 | GCAGTATA | 0.224 E-score
123 | AGCCATGG | -0.182 E-score
124 | CTCACCCC | -0.227 E-score
125 | ACCCAGAC | -0.116 E-score

Row | Sequence | binding signal
126 | TCGAAAGA | -0.0344 E-score
127 | CCTCTGGA | -0.0747 E-score
128 | CTGAGCCA | -0.122 E-score
129 | AAAAGCGA | 0.0458 E-score
130 | AAATGCTA | 0.16 E-score
131 | ATTACTGC | 0.11 E-score
132 | AAACATGT | -0.0426 E-score
133 | GTGCCGCA | -0.207 E-score
134 | AGCAAGCA | -0.0851 E-score
135 | CAGAACGA | -0.287 E-score
136 | ACGAGTCT | -0.122 E-score
137 | AGCTACAC | 0.169 E-score
138 | ACCAATAT | 0.171 E-score
139 | ATTATGCA | 0.152 E-score
140 | CCTACTAC | 0.343 E-score
141 | ACTCAACA | 0.0186 E-score
142 | GAACCTAC | 0.198 E-score
143 | AGGACTGG | -0.103 E-score
144 | AGCAGGCA | -0.115 E-score
145 | AAGCTTCC | -0.107 E-score
146 | ACCGGGTG | -0.157 E-score
147 | AGAGTCTA | -0.014 E-score
148 | CGGAGTTC | -0.107 E-score
149 | CATCGGGC | -0.213 E-score
150 | ACCTTGAC | -0.189 E-score

Row | Sequence | binding signal
151 | CACAGTGA | -0.00873 E-score
152 | TCTGAAAA | 0.0191 E-score
153 | GCAAGATA | -0.00813 E-score
154 | GCCGGCGC | -0.364 E-score
155 | TATTCGGA | -0.0696 E-score
156 | GCCTGGTA | -0.149 E-score
157 | CAGCTGAC | -0.176 E-score
158 | AGAACGCG | -0.0267 E-score
159 | ATGGCGGA | -0.251 E-score
160 | AATGGTGT | -0.103 E-score
161 | AAACGTCC | -0.268 E-score
162 | GGGCCCCC | -0.359 E-score
163 | CTCGGTCA | -0.0067 E-score
164 | TACCCGCA | -0.0663 E-score
165 | ACCGTTAC | 0.033 E-score
166 | AGGGCGCA | -0.196 E-score
167 | ACTTGGTG | -0.174 E-score
168 | AGATCTAC | 0.315 E-score
169 | AGCACAAT | 0.156 E-score
170 | ACAGAGGG | -0.104 E-score
171 | ATGAGTCA | 0.00203 E-score
172 | ACGGTCCT | -0.132 E-score

Source: PMC6212790
